# Measured values: the supplement of paper PMC11417369
# The other results are listed elsewhere or left out.
# Tested on: PfHDP1 homeodomain (GST-tagged)
# Experiment: gcPBM binding intensity (ln(normalized median fluorescence intensity)); higher = stronger DNA binding
# Method in brief: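 GST-fused DNA-binding domains of P. falciparum, expressed in E. coli, were applied at about 25 μg on average for 1 h to an Agilent 4 × 180k array of primer-extended double-stranded 36-bp intergenic genomic probes and negative controls. Binding intensity is the highest Masliner-normalised natural-log median intensity across replicate spots of either probe orientation, measured with Alexa488 anti-GST antibody and a 488 nm scan.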
row,Sequence,gcPBM binding intensity (ln)
1,TTTTTTTTTTTTTTTTGTACATAATTATATATTTAC [XGTACX_site7540],6.42
2,AGCATTTCTTTTACATGTACATAATATTTTTAATAA [XGTACX_site1968],7.3
3,TCCTAAAAAAAAAAAAAAAATGAAAAAGGAAAAAAA [CACACA_negctrl_site1646],5.62
4,TATAAATACATACATACACACATATATATATATATT [CACACA_site6116],6.81
5,TAAAAATAATATATTTGTACATATGTGTATACATAA [XGTACX_site741],6.64
6,AAAAAAAAAAAAAAAAGTACTAAATGTAAAAGAATA [XGTACX_site2164],6.37
7,CAAGCACAGAAACACACACACACACCGACACAGACA [CACACA_site4359],6.74
8,AATGTATTAAAATTACGTACATATGCACATTTTATA [XGTACX_site5046],8.53
9,TACTCTTTCCAGAAGTGTACATAGAAATAATTACAT [XGTACX_site2668],6.43
10,TTTTTTATTTTGTGCACACACATAAAAATATAAATA [CACACA_site6497],11.4
11,TATTTTTTTATTTGTGCATGTCATATTTAAACATAA [TGCATGCA_site1006],9.04
12,CACGCATACGGACACACACACACACCGATATATATA [CACACA_site4521],6.87
13,TTTTTTTTTTTTTTTTTTTTCATTCAATTATATTTA [CACACA_negctrl_site712],6.23
14,TTATCACATAAACGATGTACGTACTAGGTTTTTTTT [XGTACX_site2147],6.36
15,TGAATAATATACATACGTACATACATATATATAATA [XGTACX_site1302],6.17
16,ATAAAAAGGAAACACACACACACACCCATATATATA [CACACA_site904],6.98
17,AACTAATATAATAATACATGCACATAAAAATATATA [TGCATGCA_site606],9.35
18,AAAGGAATATAATGATGTACACAAATATATATACAT [XGTACX_site5347],6.72
19,GTAGTAAATAGGAGGATGCATATGGCACACATTATA [TGCATGCA_negctrl_site59],8.45
20,ATATAAAAATTAAAATGTACATATCTTATTATAATA [XGTACX_site983],6.09
21,CAACATAAAAATTAAGCATGCAATAGACTTGTGTTG [TGCATGCA_site417],6.76
22,TAATAAAATAATATCACACATATTTATATATATTAT [CACACA_site5814],6.12
23,GTTTAAAAAAATTATCAACTTTAAAAAGGTAACATT [XGTACX_negctrl_site203],6.08

row,Sequence,gcPBM binding intensity (ln)
1,ATATTTTATTATTGTTGTACTTTTTTTTTTTGATTG [XGTACX_site4091],6.47
2,ATAATATGAAAACACACACACACACTAATAAAAAAA [CACACA_site8617],6.97
3,TTTAATAAATAAATAAATAAAATATATTAAAAACCA [CACACA_negctrl_site80],6.19
4,TTTACTTTTTTTTCTTGTACTCATACATACTATCAT [XGTACX_site4919],7.07
5,AAATTTCAATAATCTACACACATAAAAAAACAAAAG [CACACA_site1702],7.1
6,GGCAACAATGTAGATTGTACATATGAATTTTACAAT [XGTACX_site5655],6.25
7,ATATATATTATCATTGTGCACTTATTTATATACCTT,10.4
8,TATTTAATAAAGAAATAAAAATAAAGAAAAAAAAAA [CACACA_negctrl_site74],6.23
9,ACCTACATAACATACACACGCATATATATAATTTTA [CACACA_site2847],7.35
10,AATTATTTATCGGAATGTACATAAAAACATATGTAT [XGTACX_site7443],7.07
11,AATAATATCATTTAGACACACACTCTTACAATATGT [CACACA_site8832],6.56
12,TATATACAAAATGCCTGTACATATATATTTATTTAT [XGTACX_site761],6.27
13,CATGCAAAAAATTCCACACACACACCCACATATAAA [CACACA_site1229],7.03
14,CTTTCTTATTTGAACGCATGCATTTGTACCTTTTAT [TGCATGCA_site671],6.85
15,GTATTATATTTCAACTGTACGTAAAACTATTAAAAT [XGTACX_site3679],6.55
16,TTCATTTAGCAAGAATGTACTTATATATATATATAT [XGTACX_site3401],9.23
17,CAAAAAAATGTGAAGGCATGCAAATATGTAAAATAA [TGCATGCA_site921],7.26
18,ATAAAGCCATACAATACACACATTTTACATGGGGGT [CACACA_site9072],7.27
19,CCATAAAAAGGATACACACACACACCGACATATATA [CACACA_site4653],6.89
20,AATAGCCCATATGGAATACACACTGAAAATAAAAAA [CACACA_site3373],6.86
21,AAAAATATAATATAATGTACACAAAAAAAAAAAAAT [XGTACX_site4914],6.56
22,TATAAATTTGTTGTTGCATGCAGTATACCAAAAAAA [TGCATGCA_site445],7.18
23,ATTTGTAATTTATATTCACACATTCAAAAAAATGAG [CACACA_site6057],6.32

row,Sequence,gcPBM binding intensity (ln)
1,TAAAATGTAATCTGAACACACATATTTTTTTAATAT [CACACA_site1768],6.21
2,TAATATATTTTTAACATGCACTGTATTTTAATATAT,7.31
3,TAATTAAAGTTATCTACACACCTTTATAGATATATA [CACACA_site7778],6.21
4,TATAAAACAAATATATGTACATATCATAGTATAATA [XGTACX_site2965],6.4
5,TATACAAATATATATGCACACACATATATGTATATG [CACACA_site9007],10
6,TCTGGATTGGATTACAAGAAAATAAAATATAAAATA [CACACA_negctrl_site122],6.22
7,AAAAAAAAAAAAAATACACACACACCGATATATATA [CACACA_site8142],6.82
8,ATACATATAATAATATGTACATATAATTATATATAT [XGTACX_site913],6.44
9,AATATAATATACATATGTACATATATATATATATAT [XGTACX_site8218],9.35
10,TATAACACACAATGATGTACATTACATTATTTTTTA [XGTACX_site2076],6.48
11,TAATATAAATGAAAGGTGCTTTTGCTTTCTTTTTTT,5.86
12,ATATATATATATATGTGTACATATTTTTTTGAAGTG [XGTACX_site248],9.37
13,TTTTCTATATAACAACGTACATTTATTATATTATAA [XGTACX_site6148],6.49
14,AGCAAGACGGGGTGCACACAAACTAATATGCCGAAT [CACACA_site159],9.51
15,TATTACATAATATATGTACACACGCAAATACTTATA [CACACA_site7994],6.52
16,CAAAAAAAGTTATACACACACACACGGATATAAATA [CACACA_site6619],6.94
17,TAACAACGATACAATTGTACAAATTATATATATATA [XGTACX_site4687],8.88
18,ATTATGAATTTAAGACGTACAAAAAATTTTTATTCA [XGTACX_site5682],6.36
19,ACAAGTATTCCTTTTGCACACCTTTCTGCACCTTAT [CACACA_site3873],11.1
20,ATTAAAATAATACGTACACACATGTATAATACATAT [CACACA_site1005],6.74
21,AAATACTTATTCGTGGTGCAACAATTTTAAAAATTA,10.2
22,AATAATATATTATATGCATGTGTATAATTTGATATA [TGCATGCA_site1058],7.01
23,CAAAGGAAATGGTGTACACAATTTTTCCTTTTTCGT [CACACA_site4800],6

row,Sequence,gcPBM binding intensity (ln)
1,TTTGGTTATTTGACCTGTACACATTTAATTATTTTT [XGTACX_site5170],6.32
2,CCCTCAACGAATTTGAGTACACATTTTAAATGATAT [XGTACX_site7763],6.45
3,ATCGCAAGATTAATATAAGGAGAAACGTTTATATAT [GTGCAC_negctrl_site267],6.96
4,TTATAACATATAAACATGTTTCATCTTACGTATTTT [GTGCAC_negctrl_site694],6.72
5,TGTTATATCAATAATATATAATAATACCCTTCTTTT [CACACA_negctrl_site1682],6.06
6,ATAAGAATATATAGAGTGCGTTGAAGAATTATAATA,6.67
7,ATATTTAATTTGTATGGTACAGTACGATCTTTCTTT [XGTACX_site5533],6.5
8,TTTTTTTTTTTTTTTTGTACATAATTCCATATTTTT [XGTACX_site1789],6.35
9,TGATCTTTACACATATTATATATATATAAAAAAAAA [XGTACX_negctrl_site360],6.57
10,ATTTAAATAATATTCACACACAAAATTAAATTTTAA [CACACA_site6246],6.48
11,AAAAAATTAACCGTAACACACACACCGATATATATA [CACACA_site9312],6.8
12,AATCTAGGTATTTATACACACTAAAATAATATACGA [CACACA_site4515],6.51
13,AAAAAAAAAAGAAACACACACATATAGATTTATAAC [CACACA_site6927],6.81
14,GCTCTAATTAATATTTGTACACACATATTTAACCTA [XGTACX_site6808],6.87
15,ATAATCCTTAGACACACACACACACGAATAAATAAA [CACACA_site6364],6.84
16,CGAAAAAATAAAAAAAAAATAAAATAAAATAAATAA [TGCATGCA_negctrl_site278],6.11
17,CAATATATTTGATTTACACACTTACAATGTATTTAA [CACACA_site5632],6.63
18,TTATACTGTACAAAAAGAATAGCAGTATAACAAAAA [CACACA_negctrl_site755],6.97
19,AAAAAAAAATCATATTGTACGTAAAAAAAAAAAAAA [XGTACX_site476],6.39
20,AATATGTTTTGTTAGGTTGGTGTTGGTAGAATGTTT [CACACA_negctrl_site1563],6.74
